{"source": "PubChem BioAssay AID504466", "about": "(National Center for Advancing Translational Sciences (NCATS), 2011)", "note": "The campaign covered roughly 330,000 compounds. About 4,200 (1.3%) were called active. This list was built around the results that the source calls inconclusive (neither active nor inactive); the mix of calls is not that of the screen. The call rests on the fitted dose curve; in most records, active means well fitted activation curve with a large enough effect; inconclusive means small, poorly fitted or top-dose-only effect; inactive means no such curve, though single readings can be large or run the other way. Potencies of inconclusive entries are doubtful fits and often do not repeat. Potency means the concentration at half of the fitted maximal effect; tags describe the fitted curve by direction and shape."}
{"assay": "qHTS screen for small molecules that induce genotoxicity in human embryonic kidney (HEK293T) cells expressing luciferase-tagged ELG1; further: nearly all actives have a fitted effect of over 60% in size", "conditions": "HEK293T ELG1-luciferase reporter, luminescence, 16 h; series mostly up to 46 µM", "in_short": "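Step 1: seed 2,000 HEK293T ELG1-luciferase cells per well. Step 2: add compound or DMSO, incubate 16 hr at 37 °C. Step 3: ONE-Glo, 30 min at room temperature, read luminescence.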"}
{"smiles": "COCCn1c(C(F)(F)F)ccc(NC(=O)c2ccccc2)c1=O", "Potency": "active: 7.3 µM"}
{"smiles": "O=C(Nc1cc2c3c(c1)CC(=O)N3CCC2)c1ccc(F)cc1", "Potency": "inconclusive: 20.6 µM [activator, partial curve, poor fit]"}
{"smiles": "COc1ccc(OC)c(NC(=O)C2CCN(S(=O)(=O)c3ccc4c(c3)CC(C)N4C(C)=O)CC2)c1", "note": "(configuration not stated)", "Potency": "inactive"}
{"smiles": "Cc1ccc(NC(=O)C2CCN(S(=O)(=O)c3ccc4c(c3)CCCC(=O)N4)CC2)cc1N(C)C", "Potency": "inactive"}
{"smiles": "CN(C)C(=O)[C@H]1C[C@H]1[C@@H](O)[C@H](CO)NC(=O)[C@H](COCc1ccccc1)NC(=O)OC(C)(C)C", "Potency": "inactive"}
{"smiles": "Cc1ccc(SCC(=O)N2CCc3ccccc32)cc1", "Potency": "inconclusive: 16.4 µM [activator, single point]"}
{"smiles": "CC(C)Nc1ncnc2c1cnn2-c1ccccc1", "Potency": "inconclusive: 1.3 µM [activator, partial curve]"}
{"smiles": "O=C(N=Nc1c(O)[nH]c2ccc(F)cc12)C1COc2ccccc2O1", "note": "(configuration not stated)", "Potency": "inactive"}
{"smiles": "Cc1ccc(CN=c2c([N+](=O)[O-])nn(-c3ccc4c(c3)OCCO4)n2O)cc1", "Potency": "inconclusive: 3.66 µM [activator, full curve]"}
{"smiles": "COc1cc(C(c2c(O)cc(C)[nH]c2=O)c2c(O)cc(C)[nH]c2=O)ccc1O", "Potency": "inactive"}
{"smiles": "CCOC(=O)c1c(C)[nH]c(C(=O)OCCOc2ccc(Cl)cc2)c1C", "Potency": "inconclusive: 29.1 µM [activator, partial curve, poor fit]"}
{"smiles": "COc1ccc(C(=O)Cc2nnc(C)s2)cc1", "Potency": "inconclusive: 20.6 µM [activator, single point]"}
{"smiles": "O=C(N/N=C/c1ccc2c(c1)OCO2)c1cc(-c2ccncc2)nc2ccccc12", "Potency": "inactive"}
{"smiles": "CCOc1cc(/C=C(/NC(C)=O)C(=O)O)cc(Cl)c1OCc1cccc(Br)c1", "Potency": "inactive"}
{"smiles": "Nc1ccc2c(c1)C(=O)c1ccccc1C2=O", "Potency": "inconclusive: 16.4 µM [activator, single point]"}
{"smiles": "COc1ccc(-c2nc(C)c(C(C)=O)n2O)cc1[N+](=O)[O-]", "Potency": "inactive"}
{"smiles": "Cc1ccc(/C=C2\\CCC(C3CCCC3)C2=O)cc1", "note": "(configuration not stated)", "Potency": "active: 9.2 µM"}
{"smiles": "O=C(COC(=O)c1cccc(S(=O)(=O)N2CCOCC2)c1)Nc1nc(-c2ccccc2Cl)cs1", "Potency": "inconclusive: 20.6 µM [activator, partial curve, poor fit]"}
{"smiles": "CCc1cc(Br)ccc1NC(=S)NCCc1ccccc1", "Potency": "inactive"}
{"smiles": "CC(C)Nc1nc(NC(C)(C)C)nc(Oc2ccc(=O)n(C)n2)n1", "Potency": "inconclusive: 23.1 µM [activator, partial curve]"}
{"smiles": "Nc1nc2c(s1)CCCCCCCCCC2", "Potency": "inactive"}
{"smiles": "Cn1c(SCC(=O)c2ccccc2)nnc1-c1cnccn1", "Potency": "inconclusive: 18.4 µM [activator, partial curve, poor fit]"}
{"smiles": "COc1ccc(NS(=O)(=O)c2cccc(C(=O)NNC(=O)c3ccccc3OC)c2)cc1", "Potency": "inactive"}
{"smiles": "Cc1sc2nc(C(C)C)nc(SCC(=O)N3CCN(C(=O)c4ccco4)CC3)c2c1C", "Potency": "inactive"}
{"smiles": "Brc1ccc(C2=NC(Cc3ccccc3)CO2)cc1", "note": "(configuration not stated)", "Potency": "inconclusive: 20.6 µM [activator, partial curve]"}
{"smiles": "COC(=O)/C(=C\\C(=O)c1ccccc1)Nc1ccc(OC)cc1", "Potency": "inactive"}
{"smiles": "C(/C=C/c1ccccc1)=N/N1CCN(c2ccccc2)CC1", "Potency": "inconclusive: 7.31 µM [activator, partial curve]"}
{"smiles": "Cc1cc(NCc2ccccn2)n2ncc(-c3ccccc3)c2n1", "Potency": "inconclusive: 5.8 µM [activator, partial curve]"}
{"smiles": "Cc1cccc(NC(=O)Cc2ccc(Br)cc2)n1", "Potency": "inconclusive: 16.4 µM [activator, partial curve, poor fit]"}
{"smiles": "COc1ccc(NC2CS(=O)(=O)CC2OC(=O)c2ccc(F)cc2)cc1", "note": "(configuration not stated)", "Potency": "inactive"}
{"smiles": "CC(=O)Nc1nc(-c2ccc3c(c2)CC(C)N3C(=O)C2CC2)c(C)s1", "note": "(configuration not stated)", "Potency": "inactive"}
{"smiles": "c1ccc(-c2cn3c(n2)-c2ccccc2C3)cc1", "Potency": "inconclusive: 0.651 µM [activator, full curve]"}
{"smiles": "COc1ccc(-c2nnc(SCC(=O)Nc3ccccc3OC)o2)cc1", "Potency": "inconclusive: 18.4 µM [activator, partial curve]"}
{"smiles": "O=C(Nc1nnc(C2CCCO2)s1)c1cccs1", "note": "(configuration not stated)", "Potency": "inconclusive: 18.4 µM [activator, partial curve]"}
{"smiles": "O=C(CCS(=O)(=O)c1cccs1)NC1CCCCCC1", "Potency": "inconclusive: 11.6 µM [activator, partial curve, poor fit]"}
{"smiles": "CC(C)Oc1ccc(C(=O)NCc2cccs2)cc1", "Potency": "inconclusive: 20.6 µM [activator, single point]"}
{"smiles": "Nc1nc(N)c2[nH]c(-c3ccccc3)nc2n1", "Potency": "inconclusive: 29.1 µM [activator, single point]"}
{"smiles": "CCCc1cc(C(=O)Nc2cccc(C(C)=O)c2)no1", "Potency": "inconclusive: 32.6 µM [activator, partial curve, poor fit]"}
{"smiles": "O=C(Nc1ccc(Cl)cc1)c1ccco1", "Potency": "inconclusive: 20.6 µM [activator, partial curve, poor fit]"}
{"smiles": "Cc1cccc(Nc2nc(-c3cccs3)cs2)n1", "Potency": "inconclusive: 2.59 µM [activator, full curve]"}
{"smiles": "CC(C)c1ccc(NC(=S)NC2CC3C=CC2C3)cc1", "note": "(configuration not stated)", "Potency": "inconclusive: 2.59 µM [activator, full curve, poor fit]"}
{"smiles": "O=C(CSc1nnc(SCc2ccc(Cl)cc2)s1)N1CCN(C(=O)c2ccco2)CC1", "Potency": "inactive"}
{"smiles": "CC(=O)c1ccc(N2CCN(C(=O)C3CCCN(c4ncnc5c4nc4n5CCCCC4)C3)CC2)cc1", "note": "(configuration not stated)", "Potency": "inactive"}
{"smiles": "COc1cccc(C(=O)N/N=C/c2ccc(OC3CSC3)cc2)c1", "Potency": "inconclusive: 10.3 µM [activator, partial curve, poor fit]"}
{"smiles": "CCOC(=O)c1sc(NCc2ccco2)c(-c2nc3ccccc3s2)c1N", "Potency": "inconclusive: 20.6 µM [activator, partial curve, poor fit]"}
{"smiles": "CCc1c(C)sc(NC(=O)c2cc(C)on2)c1C#N", "Potency": "inconclusive: 23.1 µM [activator, partial curve, poor fit]"}
{"smiles": "COC(=O)c1oc2ccc(Br)cc2c1NC(C)=O", "Potency": "inactive"}
{"smiles": "Brc1ccc(-c2csc(/N=C/N3CCOCC3)n2)cc1", "Potency": "active: 18.4 µM"}
{"smiles": "CCN(CC)C(=O)C1CCCN(c2ncnc3c2cnn3-c2cccc(C)c2)C1", "note": "(configuration not stated)", "Potency": "inconclusive: 18.4 µM [activator, partial curve, poor fit]"}
{"smiles": "COc1ccc(-c2cn(-c3ccc(Cl)cc3)c3[n+]2CCCCC3)cc1", "Potency": "inactive"}
{"smiles": "COc1ccc2nc(NC(=O)CSc3nnc(-c4ccoc4C)n3C)sc2c1", "Potency": "inactive"}
{"smiles": "CCCCNC(=O)Cn1c(=O)n(C)c2ccccc21", "Potency": "inactive"}
{"smiles": "Cc1ccc(C=Nc2ccccc2C(N)=O)o1", "Potency": "inconclusive: 9.2 µM [activator, partial curve, poor fit]"}
{"smiles": "CSc1ccccc1NC(=O)Nc1ccc(Cl)cc1", "Potency": "inconclusive: 23.1 µM [activator, partial curve, poor fit]"}
{"smiles": "Cc1ccc(S(=O)(=O)N2CCN(C(=O)COC(=O)C3(C)CC3(Cl)Cl)CC2)c(C)c1", "note": "(configuration not stated)", "Potency": "inactive"}
{"smiles": "O=C(NC1=NCCS1)c1sc2cc(F)ccc2c1Cl", "Potency": "inconclusive: 6.51 µM [activator, partial curve]"}
{"smiles": "CCn1c(/C=C/c2ccccc2Cl)nc2ccccc2c1=O", "Potency": "inactive"}
{"smiles": "CC(=O)NCCn1c(SCc2cccc([N+](=O)[O-])c2)nc2ccccc2c1=O", "Potency": "inactive"}
{"smiles": "COc1ccc(C)cc1NC(=O)c1nnn(Cc2cccc(F)c2)c1N", "Potency": "inconclusive: 14.6 µM [activator, partial curve]"}
{"smiles": "NC1(C#Cc2ccc3c(=O)c4ccccc4sc3c2)CCCCC1", "Potency": "inconclusive: 2.59 µM [activator, full curve]"}
{"smiles": "O=C(O)c1ccc(N/N=C/c2ccnc3ccccc23)cc1", "Potency": "inconclusive: 7.3 µM [activator, partial curve]"}
{"smiles": "O=C(CCCOc1ccccc1)N1CCN(c2ccccc2)CC1", "Potency": "active: 9.2 µM"}
{"smiles": "CC(=O)Nc1ccc(S(=O)(=O)NCCC(=O)NC(C)c2cccs2)cc1", "note": "(configuration not stated)", "Potency": "inactive"}
{"smiles": "Cc1ccc(/C=N/NC(=O)CNC(=O)c2cccs2)cc1", "Potency": "inconclusive: 25.9 µM [activator, partial curve, poor fit]"}
{"smiles": "CCC(=O)Nc1cccc(C(=O)OCC(=O)c2ccccc2Cl)c1", "Potency": "inconclusive: 18.4 µM [activator, partial curve, poor fit]"}
{"smiles": "COc1ccc(NC(=O)CC2CCCCC2)cc1OC", "Potency": "inactive"}
{"smiles": "O=C(O)c1cc(N/N=C/c2cccs2)ccc1Cl", "Potency": "inconclusive: 4.11 µM [activator, partial curve]"}
{"smiles": "CCCN1CCN(C(=O)c2cc3c(s2)-c2ccccc2OC3)CC1", "Potency": "active: 14.6 µM"}
{"smiles": "CCC(C)N1CC(O)=C(c2nc3ccccc3[nH]2)C1=N", "note": "(configuration not stated)", "Potency": "inconclusive: 18.4 µM [activator, partial curve]"}
{"smiles": "NC(=O)C1CCN(CC(=O)Nc2ccccc2C(=O)NC2CC2)CC1", "Potency": "inactive"}
{"smiles": "COc1ccc2c(c1)CC(C(=O)Nc1ccc(Cl)cc1)/C(=N/O)O2", "note": "(configuration not stated)", "Potency": "inactive"}
{"smiles": "CCC(C)c1ccc(S(=O)(=O)N2CCN3CCCC3C2)cc1", "note": "(configuration not stated)", "Potency": "inactive"}
{"smiles": "Cc1csc(NC(=O)C2CCCC2)n1", "Potency": "inconclusive: 20.6 µM [activator, single point]"}
{"smiles": "C=C1c2ccccc2O[C@H](C(=O)OCC)[C@@H]1C1CCCCC1", "Potency": "inactive"}
{"smiles": "O=C(N/N=C/c1cccc(O)c1)c1ccc(COc2ccc3c(c2)CCC3)o1", "Potency": "inconclusive: 18.4 µM [activator, partial curve, poor fit]"}
{"smiles": "Cc1ccsc1/C=N/N1CCN(C2c3ccccc3-c3ccccc32)CC1", "Potency": "inactive"}
{"smiles": "O=c1c2ccccc2cnn1-c1ccc(Br)cc1", "Potency": "inconclusive: 2.06 µM [activator, full curve, poor fit]"}
